Laboratory results: PubChem BioAssay AID1508642 (National Center for Advancing Translational Sciences (NCATS), 2021)
Out of some 43,000 compounds screened, about 200 (0.47%) were called active. About 12% were inconclusive and are not listed. Calls follow the shape of the dose curve; as a rule, active = well fitted cell-killing curve with a large enough effect; inconclusive = small, poorly fitted or top-dose-only effect, or effect the other way; inactive = flat fitted curve, though single readings scatter. This is one part of the list.

Assay: Cell viability qHTS assay in S16 Pmp22-F2sN cells; also: nearly all actives have a fitted effect of over 65% in size
Settings: S16 Pmp22-F2sN Schwann cells viability, CellTiter-Glo, 24 h; series mostly up to 57.5 µM; activity change, negative = cytotoxicity: at the top concentration
Procedure, shortened: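 Used to flag compounds lowering reporter output through toxicity, this quantitative HTS measures ATP-based CellTiter-Glo luminescence in S16 Pmp22-F2sN Schwann cells after 24 h compound exposure at 37C.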
% is scaled to controls: 0 for no effect and ±100 for the full control effect.

Row | Structure (SMILES) | activity change, negative = cytotoxicity
1 | Cc1ccc(CCNC(=O)CN(c2ccc(C(C)C)cc2)S(=O)(=O)c2c(C)nn(C)c2C)cc1 | inactive: -16.6%
2 | CCOC(=O)c1c(NC(=O)c2ccc(S(=O)(=O)N(CC)CC)cc2)sc2c1CCCCC2 | inactive: 8.4%
3 | Cc1ccc(C(=O)N2CCCCC2CCN2CCCCC2)cc1 (centres undefined) | inactive: 11.4%
4 | O=C(NCCC1=CCCCC1)c1ccc2c(c1)N(Cc1ccccc1)C(=O)c1ccccc1S2=O (centres undefined) | inactive: -8.96%
5 | CCn1c(SCC(=O)Nc2c(C)cccc2C)nnc1-c1nonc1NC(C)=O | inactive: -4.6%
6 | Cc1cccc(C(=O)N(Cc2ccccc2F)C2CCS(=O)(=O)C2)c1 (centres undefined) | inactive: 0.337%
7 | COC(=O)c1c(NC(=O)COc2cccc(C(F)(F)F)c2)sc2c1CCCC2 | inactive: 9.11%
8 | COc1ccc(Cc2nc3c4cnn(-c5cccc(F)c5)c4ncn3n2)cc1 | inactive: 7.75%
9 | COc1cc(C(=O)N2CCN(C(=O)COc3cccc(C)c3)CC2)cc(OC)c1OC | inactive: 8.68%
10 | COc1ccc(N2CCN(C(=O)c3cnn(-c4ccc(OC)cc4)c3C3CCN(C(=O)OC(C)(C)C)CC3)CC2)cc1 | inactive: -0.683%
11 | CCN(CC)c1ccc(NS(=O)(=O)c2cc(-c3cc(C)no3)ccc2C)c(C)c1 | inactive: -18.7%
12 | CCCNC(=O)N1CCCN(S(=O)(=O)c2ccc3c(ccn3CC)c2)CC1 | inactive: 0.0531%
13 | CCCCOc1cccc(C(=O)N2CCN(CCc3ccncc3)CC2)c1 | inactive: -2.81%
14 | COc1ccc(OC)c(NC(=O)Cn2c(=O)cc(C)c3c(C)nn(-c4cccc(Cl)c4C)c32)c1 | inactive: 5.93%
15 | O=C(CN1C(=O)CCSc2ccccc21)Nc1ccc(C(F)(F)F)cc1 | inactive: -0.54%
16 | Cc1ccc(CNC(=O)C2CCCN(c3ncnc4onc(-c5ccc(F)cc5)c34)C2)cc1 (centres undefined) | inactive: 6.42%
17 | CCCN1Cc2cccc(C(=O)Nc3ccccc3C(=O)OC)c2C1=O | inactive: -19.1%
18 | CCOc1ccc(NC(=O)CN2CCN(CC(=O)Nc3ccc(F)cc3F)CC2)cc1 | inactive: 0.37%
19 | CCOc1ccccc1C(=O)Nc1ccc(S(=O)(=O)N(Cc2ccccc2)c2ccccc2)cc1 | inactive: 14.8%
20 | Cc1ccccc1-c1noc(-c2nnn(-c3ccccc3C)c2N)n1 | inactive: -1.51%
21 | Cc1ccc(-n2cc(C(=O)OCc3ccc(F)c(F)c3)c3ccccc3c2=O)cc1 | inactive: 0.479%
22 | Cc1ccc(-n2ncc(C(=O)NC3CCN(Cc4ccccc4)CC3)c2C2CCN(C(=O)OC(C)(C)C)CC2)cc1C | inactive: -28.4%
23 | CCCS(=O)(=O)Nc1cc(-c2cn3ccc(C)cc3n2)ccc1C | inactive: 7.86%
24 | COc1ccc(CCCc2nnc(SCC(=O)Nc3ccc(C)cc3)o2)cc1C | inactive: -1.73%

Row | Structure (SMILES) | activity change, negative = cytotoxicity
25 | Cc1ccc(C)c(CN2C(=O)c3ccccc3S(=O)c3ccc(C(=O)N4CCOCC4)cc32)c1 (centres undefined) | inactive: 9.66%
26 | COc1ccc(C(=O)Nc2nc3n(n2)C(c2ccc(Cl)cc2)C=C(c2ccccc2)N3)cc1OC (centres undefined) | inactive: -22.8%
27 | Cc1ccc(Nc2sc(C(=O)c3ccc(F)cc3)c(N)c2S(=O)(=O)c2ccc(C)cc2)cc1 | inactive: 5.61%
28 | COc1ccccc1N1CCN(S(=O)(=O)c2c(C)sc3ncn(CC(=O)Nc4ccc(C)cc4Br)c(=O)c23)CC1 | inactive: -1.76%
29 | CCC(C(=O)NCCc1cc(OC)ccc1OC)n1nc(C)c2c(C)n(-c3ccccc3)nc2c1=O (centres undefined) | inactive: -9.35%
30 | CCOc1ccccc1NC(=O)Cn1c(=O)n(Cc2cccs2)c(=O)c2cccnc21 | inactive: 12.7%
31 | Fc1ccc(-c2nn(-c3ccc(Cl)cc3)c3c2cnc2ccc(F)cc23)cc1 | inactive: 12.6%
32 | COc1ccc(-n2c(=O)c3ccccc3n(Cc3ccccc3Cl)c2=O)cc1 | inactive: 0.399%
33 | CC(Sc1nc(=O)cc(N)n1CCc1ccccc1)C(=O)Nc1cccc(Cl)c1 (centres undefined) | inactive: -8.65%
34 | CCc1ccc(C(=O)c2cn(CC(=O)Nc3ccc4c(c3)OCO4)c3ccc(F)cc3c2=O)cc1 | inactive: 2%
35 | Cn1c(=O)oc2cc(S(=O)(=O)NC(Cc3ccccc3)C(=O)NCc3ccccc3Cl)ccc21 (centres undefined) | inactive: 1.6%
36 | COc1ccc(-c2n[nH]c3c2cnc2cc(OC)c(OC)cc23)cc1 | inactive: 2.87%
37 | CCN(CC)S(=O)(=O)c1ccc2c(c1)c(=O)c(C(=O)N1CCN(c3cccc(Cl)c3)CC1)cn2C | inactive: -1.56%
38 | Cc1ccc(CSC2=Nc3ccccc3C3=NC(CC(=O)NCc4ccc5c(c4)OCO5)C(=O)N23)cc1 (centres undefined) | inactive: -19.6%
39 | COc1cc(OC)c(NC(=O)c2ccc3c(c2)N(Cc2ccc(C)cc2)CCS3)cc1Cl | inactive: 2.03%
40 | Cc1cccc(C2N=C(N)Nc3nc4ccccc4n32)c1 (centres undefined) | inactive: -19.7%
41 | COCCCNC(=O)CCn1c(=O)c2ccccc2n(CC(=O)Nc2cc(Cl)ccc2OC)c1=O | inactive: 9.64%
42 | O=C(NCCc1ccc(Cl)cc1)c1ccc2c(c1)N(Cc1ccc(Cl)cc1)C(=O)CS2 | inactive: -2.61%
43 | Cc1cc(C)c(NC(=O)Cn2nnc(S(=O)(=O)c3ccc(C)c(C)c3)c2N)c(C)c1 | inactive: 2.61%
44 | CC(C)c1ccc(NC(=O)N2c3ccccc3Sc3ccccc32)cc1 | inactive: -9.88%
45 | CN1C(C(=O)Nc2cccc(O)c2)=CC(c2ccco2)=NS1(=O)=O | inactive: -3.74%
46 | Cc1cccc(N2CCn3c2nc2c3c(=O)n(C/C=C/c3ccccc3)c(=O)n2C)c1 | inactive: -0.664%
47 | CCCCN(CC)c1nc(-c2ccccc2F)nc2ccccc12 | inactive: 0.534%
48 | COc1ccc(S(=O)(=O)N2CCN(c3cccc(C)c3C)CC2)c2ccccc12 | inactive: 4.5%

Row | Structure (SMILES) | activity change, negative = cytotoxicity
49 | O=S1(=O)c2ccccc2N(Cc2ccc(Cl)cc2)c2ccccc21 | inactive: -8.55%
50 | COc1ccc2c(c1)c(=O)c(C(=O)c1ccc(F)cc1)cn2CC(=O)Nc1ccc2c(c1)OCO2 | inactive: 11.9%
51 | CCc1nnc(NC(=O)c2nc(SCc3ccccc3F)ncc2Cl)s1 | inactive: 5.73%
52 | CCCCOc1ccc(Cn2c(=O)oc3ccc(C)cc32)cc1OC | inactive: -18.3%
53 | CC(C)CCNC(=O)Cn1c(-c2cccs2)cc2cc(F)ccc21 | inactive: 0.307%
54 | Cc1cc(Br)ccc1NC(=O)c1sc2nc3n(c(=O)c2c1C)CCCC3 | inactive: 3.75%
55 | Cc1ccc(NC(=O)C2CCN(c3nnc(C)c4c(C)n(-c5ccccc5)nc34)CC2)c(Cl)c1 | inactive: 10.2%
56 | COc1ccc(Cl)cc1C(=O)Nc1nnc2n1CCS2 | inactive: 2.85%
57 | Cc1ccc(S(=O)(=O)N(CC(=O)NCCSc2ccc(Cl)cc2)c2ccccc2C)cc1 | inactive: -18.9%
58 | O=C(CCCCCn1c(=O)c2sccc2n(Cc2ccc(Cl)cc2)c1=O)NCc1ccc2c(c1)OCO2 | inactive: -16.8%
59 | Cc1ccc2oc(-c3ccc(C)c(NC(=O)/C=C/c4ccc(Cl)cc4)c3)nc2c1 | inactive: 1.33%
60 | COc1ccc(Nc2c(-c3ccc(C)o3)nc3cc(C)ccn23)cc1 | inactive: -26.3%
61 | Cc1cc(C)cc(NC(=O)Cn2cc(C(=O)c3cccs3)c3ccccc32)c1 | inactive: 1.95%
62 | CC(=O)N1CCC(N(Cc2ccco2)C(=O)Nc2ccc(C)c(Cl)c2)CC1 | inactive: -4.48%
63 | Cc1ccc2[nH]c3c(=O)n(CC(=O)N(CCN(C)C)Cc4ccccc4)ncc3c2c1 | inactive: -17.3%
64 | CCOc1ccc(N2CC(NC(=O)C3CCCCC3)CC2=O)cc1 (centres undefined) | inactive: 1.17%
65 | COc1cc(NC(=O)c2nc3nc(C)cc(C(F)F)n3n2)c(OC)cc1Cl | inactive: 1.86%
66 | Cc1ccc(CNC(=O)c2ccc(CN3CC(=O)N4CCCCC4C3=O)cc2)cc1 (centres undefined) | inactive: 19%
67 | CCOC(=O)CNC(=O)N1[C@H](c2cccs2)[C@@H](C)C(=O)[C@@H](C)[C@@H]1c1cccs1 | inactive: -16.8%
68 | Cc1cccc(C)c1-n1ncc(C(=O)NC2CCCC2)c1C1CCN(C(=O)OC(C)(C)C)CC1 | inactive: 3.72%
69 | CCOc1ccc(NC(=O)NCc2cccn2Cc2ccccc2)cc1 | inactive: 4.11%
70 | O=C(c1ccc2c(c1)CCN2S(=O)(=O)c1ccc(Cl)cc1)N1CCN(c2ccc(F)cc2)CC1 | inactive: -25%
71 | Cc1nnc(N2C(=O)c3oc4ccccc4c(=O)c3C2c2ccc(Cl)cc2)s1 (centres undefined) | inactive: 5.67%
72 | Cc1c(C(=O)OC2CCCCCC2)[nH]c2c1C(=O)CC(c1ccc(Cl)cc1)C2 (centres undefined) | inactive: -0.493%

Row | Structure (SMILES) | activity change, negative = cytotoxicity
73 | Cc1ccc2c(c1)C(=O)OC(C(=O)Nc1ncc(Cc3ccc(Cl)cc3)s1)C2 (centres undefined) | inactive: 2.38%
74 | O=C(COc1ccc(Cl)cc1Cl)Nc1cccc2cccnc12 | inactive: 3.89%
75 | COc1ccc(S(=O)(=O)NCC(c2ccc(N(C)C)cc2)N2CCc3ccccc32)cc1OC (centres undefined) | inactive: -13.1%
76 | COc1ccccc1N1CCN(C(=O)c2cnn(-c3ccc(F)cc3F)c2C2CCNCC2)CC1 | inactive: 0.531%
77 | COc1cccc(C(=O)Nc2ccc3oc(-c4cccc5c(Br)cccc45)nc3c2)c1 | inactive: 29.2%
78 | Cc1ccc(Nc2nnc(-c3ccc(C)c(S(N)(=O)=O)c3)c3ccccc23)cc1 | inactive: -19.9%
79 | CN(C)S(=O)(=O)c1ccc(C(=O)NCCSc2c(-c3ccc(Cl)cc3)[nH]c3ccccc23)cc1 | inactive: -5.15%
80 | Cc1cccc(OCC(=O)Nc2cccc3cccnc23)c1C | inactive: 8.7%
81 | COc1ccc(N2CCN(C(=O)CCc3c(C)nc4cc(-c5ccc(OC)cc5OC)nn4c3C)CC2)cc1 | inactive: -2.66%
82 | CCOC(=O)c1c(NC(=O)c2ccccc2OCC)sc2c1CCC(CC)C2 (centres undefined) | inactive: 1.52%
83 | COc1ccc(Cc2nc3ccc(C(=O)NCc4ccccc4Cl)cc3o2)cc1 | inactive: 2.75%
84 | Cc1ccc(NC(=O)C2CC(=O)N(c3ccc(OC(C)C)cc3)C2)cc1 (centres undefined) | inactive: 7.04%
85 | CCOC(=O)c1c(C)c(-c2ccccc2)n(CC(=O)NC(CC)Cc2ccccc2)c1C (centres undefined) | inactive: 8.91%
86 | CCN(CC)c1ccc(NC(=O)C2CCN(S(=O)(=O)c3cnc[nH]3)CC2)c(C)c1 | inactive: -1.18%
87 | CCOc1ccc(CC(=O)NCC(c2cccs2)S(=O)(=O)c2ccc(F)c(C)c2)cc1 (centres undefined) | inactive: 13.7%
88 | O=C(COc1ccc(Cl)cc1)Nc1ccccc1OCc1cc(=O)n2ccccc2n1 | inactive: 2.59%
89 | CCc1ccc(NC(=O)C(CC)n2c(=O)c(-c3ccccc3NC(C)=O)nc3ccccc32)cc1 (centres undefined) | inactive: 0.862%
90 | CN(Cc1ccccc1)C(=O)CSc1nc(-c2ccc(F)cc2)cc(C(F)(F)F)n1 | inactive: 0.413%
91 | COCCOC(=O)c1c(-c2ccccc2)c(-c2ccccc2)nn(C)c1=O | inactive: 3.18%
92 | CCOc1ccc(CC(=O)Nc2c(C(=O)c3ccccc3)oc3ccc(OC)cc23)cc1OCC | inactive: 8.91%
93 | CCc1ccccc1NC(=O)Cn1c(=O)n(Cc2ccc(OC)cc2)c(=O)c2oc3ccccc3c21 | inactive: 1.8%
94 | CCCC(CCC)C(=O)NC1CC(=O)N(c2ccc3c(c2)OCCO3)C1 (centres undefined) | inactive: 22.1%
